Data taken from the supplement of paper PMC7125110.
± gives the standard error. Variants at the background level are over-represented here.

B1: glmS ribozyme (parent)
chain: AUAAAAGCGCCAGAACUACAGAAAUGUAGUUGACGAGGAGGAGGUUUAUCGAAUUUUCGGCGGAUGCCUCCAAA

What was measured:
Details in all cases: with glucosamine-6-phosphate
glucosamine-6-phosphate [1] = variants of: B1; assay: self-cleavage kobs at 640 uM GlcN6P; higher = faster cleavage; RNA array
Summary of the method: (§1)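 Glucosamine-6-phosphate (40 μM to 10 mM) in HEPES/KCl/Mg(OAc)2 buffer was flowed over sequenced MiSeq chips, and tiles were imaged over ~14 h. Barcoded ribozyme variants there had been transcribed in situ by E. coli RNA polymerase and were tracked through a hybridised Cy3 probe at 37 °C. One- or two-exponential decay fits to per-tile medians, normalised to baseline and to non-cleaving reference variants, gave kobs. kcat and KM came from weighted Michaelis–Menten fits across concentrations.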

glucosamine-6-phosphate [2] = variants of: B1; assay: self-cleavage kobs at 160 uM GlcN6P; higher = faster cleavage; RNA array
Summary of the method: as §1

glucosamine-6-phosphate [3] = variants of: B1; assay: self-cleavage kobs at 2500 uM GlcN6P; higher = faster cleavage; RNA array
Summary of the method: as §1

glucosamine-6-phosphate [4] = variants of: B1; assay: self-cleavage kobs at 10000 uM GlcN6P; higher = faster cleavage; RNA array
Summary of the method: as §1

Variant	self-cleavage kobs at 640 uM GlcN6P (glucosamine-6-phosphate [1]) [s⁻¹]	self-cleavage kobs at 160 uM GlcN6P (glucosamine-6-phosphate [2]) [s⁻¹]	self-cleavage kobs at 2500 uM GlcN6P (glucosamine-6-phosphate [3]) [s⁻¹]	self-cleavage kobs at 10000 uM GlcN6P (glucosamine-6-phosphate [4]) [s⁻¹]
G9C A48G	< 1e-05	< 1e-05	< 1e-05	
G9C A48U	< 1e-05	< 1e-05	< 1e-05	
G9C A53C C70U	< 1e-05		< 1e-05	
G9C A53C G62U	< 1e-05	< 1e-05	< 1e-05	< 1e-05
G9C C10A	< 1e-05		< 1e-05	< 1e-05
G9C C16G C34U	< 1e-05			
G9C C16G G38U U65A	< 1e-05		< 1e-05	
G9C C16U G32C C58G G66A	< 1e-05			
G9C C16U U47C A53C U54C U56C C58U G59A	< 1e-05		< 1e-05	
G9C C19A U31C	< 1e-05	< 1e-05	< 1e-05	
G9C C34U U49C U65G	< 1e-05			
G9C C50A C61U G63C	< 1e-05		< 1e-05	
G9C C61U	< 1e-05	< 1e-05	< 1e-05	< 1e-05
G9C G29A A48C	< 1e-05	< 1e-05	< 1e-05	
G9C G29A G32U U57A	< 1e-05			
G9C G32A G41C C50G C70U	< 1e-05	< 1e-05		
G9C G32C A48G	< 1e-05	< 1e-05	< 1e-05	
G9C G38A C70U	< 1e-05	< 1e-05	< 1e-05	
G9C G38U	< 1e-05	< 1e-05		< 1e-05
G9C G44C	< 1e-05		< 1e-05	
G9C G59A	< 1e-05	< 1e-05	< 1e-05	
G9C U31A G44U A52G	< 1e-05	< 1e-05	< 1e-05	
G9C U31C	< 1e-05	< 1e-05	< 1e-05	< 1e-05

Variant	self-cleavage kobs at 640 uM GlcN6P (glucosamine-6-phosphate [1]) [s⁻¹]	self-cleavage kobs at 160 uM GlcN6P (glucosamine-6-phosphate [2]) [s⁻¹]	self-cleavage kobs at 2500 uM GlcN6P (glucosamine-6-phosphate [3]) [s⁻¹]	self-cleavage kobs at 10000 uM GlcN6P (glucosamine-6-phosphate [4]) [s⁻¹]
G9C U31C C67U	< 1e-05		< 1e-05	
G9C U49C	< 1e-05	< 1e-05	< 1e-05	< 1e-05
G9C U55G C67A	< 1e-05		< 1e-05	
G9C U56C	< 1e-05	< 1e-05	< 1e-05	< 1e-05
G9U A14C A52G	< 1e-05			
G9U A14C A53U G62A C67G	< 1e-05		< 1e-05	
G9U A14C U45G U56G	< 1e-05	< 1e-05		
G9U A15C C34U A53U C67U	< 1e-05			
G9U A15U A39U U69C	< 1e-05	< 1e-05		
G9U A15U G59C	< 1e-05			
G9U A39G C68U	< 1e-05	< 1e-05		
G9U A39U G44A C71A	< 1e-05			
G9U C10A C11A C68A	< 1e-05			
G9U C10A G29C G37A G43C A48U C50G C70A	< 1e-05			
G9U C10U C34G A53U G63C U65A	< 1e-05			
G9U C11G C67U	< 1e-05			
G9U C16G G60A	< 1e-05			
G9U C16U U57G C68U	< 1e-05	< 1e-05		
G9U C34G G38C G43A U46C U55G	< 1e-05			
G9U C58G G59C	< 1e-05		< 1e-05	
G9U C61G G62A	< 1e-05	< 1e-05	< 1e-05	
G9U G13A G40A G51C G62U	< 1e-05		< 1e-05	
G9U G13C G43A	< 1e-05			

Variant	self-cleavage kobs at 640 uM GlcN6P (glucosamine-6-phosphate [1]) [s⁻¹]	self-cleavage kobs at 160 uM GlcN6P (glucosamine-6-phosphate [2]) [s⁻¹]	self-cleavage kobs at 2500 uM GlcN6P (glucosamine-6-phosphate [3]) [s⁻¹]	self-cleavage kobs at 10000 uM GlcN6P (glucosamine-6-phosphate [4]) [s⁻¹]
G9U G13C G59A	< 1e-05			
G9U G13U	< 1e-05	< 1e-05	< 1e-05	
G9U G29C G41U U45C A64U	< 1e-05	< 1e-05		
G9U G38A	< 1e-05	< 1e-05		
G9U G40C G51A	< 1e-05	< 1e-05	< 1e-05	
G9U G40U	< 1e-05	< 1e-05	< 1e-05	< 1e-05
G9U G44C U65G	< 1e-05	< 1e-05		
G9U G62A C68U	< 1e-05		< 1e-05	
G9U U31C G35U A42G C61A C67A C70U	< 1e-05			
G9U U47A	< 1e-05		< 1e-05	
G9U U54C	< 1e-05			
C10A A12C G59U	< 1e-05		< 1e-05	
C10A A12G A42U	< 1e-05			
C10A A33U G37U A39C	< 1e-05			
C10A A36C G38U G40C	< 1e-05	< 1e-05	< 1e-05	
C10A A42G U47C C50G C70U	< 1e-05			
C10A A42U A48C G59C	< 1e-05		< 1e-05	
C10A A42U A52G	< 1e-05			
C10A C11G A39U	< 1e-05	< 1e-05	< 1e-05	
C10A C11G U30G G41U	< 1e-05			
C10A C16A G51U A64C	< 1e-05			
C10A C16U C61U C71A	< 1e-05			
C10A C16U G51C G60U	< 1e-05			

Variant	self-cleavage kobs at 640 uM GlcN6P (glucosamine-6-phosphate [1]) [s⁻¹]	self-cleavage kobs at 160 uM GlcN6P (glucosamine-6-phosphate [2]) [s⁻¹]	self-cleavage kobs at 2500 uM GlcN6P (glucosamine-6-phosphate [3]) [s⁻¹]	self-cleavage kobs at 10000 uM GlcN6P (glucosamine-6-phosphate [4]) [s⁻¹]
C10A C34A A42C	< 1e-05		< 1e-05	
C10A C61G C67G	0.00401 ± 0.0011			
C10A G13C A15G G60C	< 1e-05	< 1e-05	< 1e-05	
C10A G13U A52C	< 1e-05		< 1e-05	
C10A G29U	< 1e-05		< 1e-05	< 1e-05
C10A G29U A64G	< 1e-05	< 1e-05		
C10A G29U U49G U56G C58A C67U	< 1e-05			
C10A G32A U46G	< 1e-05		< 1e-05	
C10A G32U	< 1e-05	< 1e-05	< 1e-05	
C10A G38U C67A	< 1e-05			
C10A G40C G62C	< 1e-05		< 1e-05	
C10A G44U U65G	< 1e-05		< 1e-05	
C10A G60U G62U	< 1e-05		< 1e-05	
C10A G62C G63U	< 1e-05		< 1e-05	
C10A U30C U47A G60C	< 1e-05		< 1e-05	
C10A U30G G66C	< 1e-05	< 1e-05	< 1e-05	< 1e-05
C10A U31A U56C	< 1e-05		< 1e-05	< 1e-05
C10A U31C U45C U47G U57C	< 1e-05		< 1e-05	
C10A U31G	< 1e-05		< 1e-05	
C10A U56A C70U	6.36e-05 ± 2.6e-05		0.000147 ± 6.5e-05	
C10A U56G	< 1e-05			
C10G A14C A42G A64G	< 1e-05		< 1e-05	
C10G A14C U46C	< 1e-05		< 1e-05	

Variant	self-cleavage kobs at 640 uM GlcN6P (glucosamine-6-phosphate [1]) [s⁻¹]	self-cleavage kobs at 160 uM GlcN6P (glucosamine-6-phosphate [2]) [s⁻¹]	self-cleavage kobs at 2500 uM GlcN6P (glucosamine-6-phosphate [3]) [s⁻¹]	self-cleavage kobs at 10000 uM GlcN6P (glucosamine-6-phosphate [4]) [s⁻¹]
C10G A15C G35U	< 1e-05		< 1e-05	
C10G A15G A39U G60C C68A	< 1e-05		< 1e-05	
C10G A15U G37C	< 1e-05			
C10G A15U G43C	< 1e-05	< 1e-05		
C10G A15U G59U	< 1e-05	< 1e-05		
C10G A15U U56A C70G	< 1e-05			
C10G A39C A64G	< 1e-05	< 1e-05	< 1e-05	
C10G A39C C68G	< 1e-05	< 1e-05	< 1e-05	
C10G A39U U45C	< 1e-05			
C10G A42U C71U	< 1e-05			
C10G A48C G66U	< 1e-05	< 1e-05	< 1e-05	
C10G A53U U57A	< 1e-05			
C10G A64U	< 1e-05	< 1e-05	< 1e-05	
C10G C11A C34G	< 1e-05		< 1e-05	
C10G C11G A39C G44C U55C	< 1e-05			
C10G C34G	< 1e-05	< 1e-05	< 1e-05	< 1e-05
C10G C58G G62C	< 1e-05			
C10G G13A G43A C50U	< 1e-05		< 1e-05	< 1e-05
C10G G13A U31G A53U	< 1e-05		< 1e-05	
C10G G13U	< 1e-05	< 1e-05	< 1e-05	
C10G G29A G62U C71U	< 1e-05	< 1e-05	< 1e-05	
